# In PubChem BioAssay AID488969 (Vanderbilt High Throughput Screening Facility, 2010):
# Over roughly 110,000 compounds, “z-score” has its median near -0.1; the highest 2% begin near 2. This is one part of the list.
# Target: Metabotropic glutamate receptor 8 (Rattus norvegicus) (UniProt P70579)
# Assay: rat mGluR8 modulators via GIRK flux, primary screen, cell-based, thallium flux, HTS (AID 488969)
# Conditions: HEK293 rat mGluR8, GIRK (G protein-gated inwardly rectifying potassium channel) thallium flux, FluoZin2; at 10 µM; stronger effect = higher value; submaximal glutamate (EC20) added with thallium
# Chain of UniProt P70579 (P70579 whole entry, looked up): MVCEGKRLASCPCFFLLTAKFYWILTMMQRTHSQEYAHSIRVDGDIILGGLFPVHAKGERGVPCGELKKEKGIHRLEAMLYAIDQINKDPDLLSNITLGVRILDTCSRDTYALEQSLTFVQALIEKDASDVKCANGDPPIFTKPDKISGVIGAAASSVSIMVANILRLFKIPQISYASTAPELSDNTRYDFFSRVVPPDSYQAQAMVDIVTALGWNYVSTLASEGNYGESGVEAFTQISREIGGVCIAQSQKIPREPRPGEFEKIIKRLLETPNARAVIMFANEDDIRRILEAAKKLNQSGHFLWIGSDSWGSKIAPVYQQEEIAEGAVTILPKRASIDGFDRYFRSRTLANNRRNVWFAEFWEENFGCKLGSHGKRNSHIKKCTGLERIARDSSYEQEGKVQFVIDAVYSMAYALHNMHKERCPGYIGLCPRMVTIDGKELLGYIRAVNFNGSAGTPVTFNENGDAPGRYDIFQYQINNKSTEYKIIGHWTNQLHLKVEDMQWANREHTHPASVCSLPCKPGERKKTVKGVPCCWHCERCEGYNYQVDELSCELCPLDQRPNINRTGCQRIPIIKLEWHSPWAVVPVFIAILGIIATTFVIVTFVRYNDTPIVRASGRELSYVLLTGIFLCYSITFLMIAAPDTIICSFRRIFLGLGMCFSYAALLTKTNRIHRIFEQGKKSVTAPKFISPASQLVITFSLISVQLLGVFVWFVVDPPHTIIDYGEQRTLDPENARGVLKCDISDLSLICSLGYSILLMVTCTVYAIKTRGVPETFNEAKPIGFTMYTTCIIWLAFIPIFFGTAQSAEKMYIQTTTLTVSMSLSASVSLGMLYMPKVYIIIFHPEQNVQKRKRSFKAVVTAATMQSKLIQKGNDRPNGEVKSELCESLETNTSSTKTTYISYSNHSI
row,Structure (SMILES),z-score
1,COc1ccc(CN(CC(=O)NCC2CCCO2)C(=O)CCC(=O)Nc2cc(C)ccn2)cc1 (stereo not given),-0.0534
2,O=C(CN(C(=O)CNS(=O)(=O)c1ccccc1)c1ccc2c(c1)OCCO2)NCc1ccco1,-1.1
3,NC(=O)Nn1c(CCC(=O)O)ccc1-c1ccc(Br)cc1,-0.193
4,O=C(CSCc1ccccc1)N1CCc2ccccc21,-0.196
5,COC(=O)c1ccccc1OC(=O)c1cccnc1,-0.23
6,Cc1ccc(N2C(=O)CC(NNc3nc4ccccc4s3)C2=O)cc1C (stereo not given),9.02e-05
7,NC(=O)c1ccccc1NS(=O)(=O)c1ccc2c(c1)OCCO2,-0.0146
8,O=C(COC(=O)c1ccccn1)Nc1ccc(S(=O)(=O)N2CCOCC2)cc1,0.194
9,CC(C)[C@H](NC(=O)NCCc1ccccc1)C(=O)O,0.184
10,CNC(=O)/C(=C\c1ccc2c(c1)OCO2)NC(=O)c1ccc(Br)cc1,-0.105
11,CCOc1ccccc1C(=O)NCCCCCC(=O)O,-0.0332
12,CC1Cn2c(nnc2-c2ccccc2O)S1 (stereo not given),-0.365
13,CCOC(=O)CCc1c(C)c2ccc(OCC(=O)N(CC)CC)c(C)c2oc1=O,-0.0102
14,CCn1c(Cc2ccccc2)nnc1SCC(=O)NC1CC1,-0.232
15,CS(=O)(=O)Nc1ccc(C(=O)NCCc2ccccc2)cc1,-0.541
16,CCOc1ccccc1C(=O)N1CCC(n2nnc3cc(C)ccc32)CC1,-0.309
17,O=[N+]([O-])c1cc(S(=O)(=O)N2CCCC2)ccc1NN=C1CCCC1,-0.43
18,COc1cc(NC(=O)COc2c(C)cc(C)cc2[N+](=O)[O-])c(OC)cc1Cl,-0.148
19,COc1cccc(NC(=O)C2CC(=O)N=C(N)S2)c1 (stereo not given),0.56
20,CC1CCCCC12NC(=O)N(CC(=O)c1ccc[nH]1)C2=O (stereo not given),1.05
21,CCCCN(CCCC)S(=O)(=O)c1ccc(NS(=O)(=O)c2ccc(NC(C)=O)cc2)cc1,-0.173
22,Nc1nnc(CC(c2ccccc2)c2ccccc2)s1,0.186
23,CCOc1ccc2[nH]c(=O)c(C(c3nnnn3Cc3ccco3)N3CCC(C)CC3)cc2c1 (stereo not given),-0.251
24,Cc1ccc(S(=O)(=O)NCCCCC(NC(=O)OC(C)(C)C)C(=O)O)cc1 (stereo not given) (tested in a mixture with another compound),-0.148
25,N/C(=N\O)c1ccc(NC(=O)c2ccc(Br)o2)cc1,0.000467
26,CCCCCCCCCSc1n[nH]c(N)n1,0.431
27,O=C(Nc1ccc(F)c(F)c1)c1cnc(-c2ccccc2)nc1-c1ccccc1,-0.226
28,CC/C(=N\NC(=O)c1ccc2c(c1)OCO2)C12CC3CC(CC(C3)C1)C2,1.44
29,CC1C(=O)CCN(C(C)C)C1C (stereo not given),0.228
30,CCOC(=O)c1[nH]c(C)c(/C(O)=C2\C(=O)C(=O)N(CCCN(C)C)C2c2ccncc2)c1C (stereo not given),-0.219
